In the BET-seq Pho4 binding data (Le et al. 2018):
This is one part of the list. These are noisy estimates, calculated here from bound and input reads.

The sequences below were run against T1, Pho4 (S. cerevisiae) (UniProt P07270) (assay: relative binding free energy (BET-seq); higher = weaker binding). Conditions: reference: library average.
T1 sequence: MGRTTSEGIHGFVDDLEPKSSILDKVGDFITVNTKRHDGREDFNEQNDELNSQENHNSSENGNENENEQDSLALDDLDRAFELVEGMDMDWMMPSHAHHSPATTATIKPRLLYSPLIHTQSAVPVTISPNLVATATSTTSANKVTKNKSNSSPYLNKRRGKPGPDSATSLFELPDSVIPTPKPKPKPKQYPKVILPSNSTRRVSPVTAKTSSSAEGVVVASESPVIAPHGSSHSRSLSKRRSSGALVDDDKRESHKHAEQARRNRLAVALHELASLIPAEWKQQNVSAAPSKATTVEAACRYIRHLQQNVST

Sequence | relative binding free energy
GTAGGCACGTGACTGG | 0.04 kcal/mol
GTGTCCACGTGGTGCT | -0.07 kcal/mol
AAGGGCACGTGTAGGT | -0.15 kcal/mol
GTGTGCACGTGTGAGT | 0.05 kcal/mol
GGTTACACGTGATCTG | 0.17 kcal/mol
TCGTTCACGTGTTAAT | 0.21 kcal/mol
AGTCTCACGTGTGTTG | 0.2 kcal/mol
GCTTGCACGTGTACGT | 0.08 kcal/mol
TACTGCACGTGTGTGA | 0.06 kcal/mol
TGGGCCACGTGGTAGC | 0.04 kcal/mol
TATTCCACGTGGGTAG | -0.07 kcal/mol
TGTATCACGTGTATTA | 0.15 kcal/mol
TTTTCCACGTGCGTAT | 0.03 kcal/mol
AGTTGCACGTGTTGTA | -0.11 kcal/mol
GTCGACACGTGTTGTT | 0.17 kcal/mol
TACGTCACGTGCGGTT | 0 kcal/mol
ATGATCACGTGCTATG | 0.03 kcal/mol
ATGCGCACGTGGGAGT | -0.27 kcal/mol
GAGGACACGTGGCTGT | -0.03 kcal/mol
AATCGCACGTGGCGTG | 0.01 kcal/mol
CCGGACACGTGGGTTG | -0.06 kcal/mol
TGCTACACGTGGGTGA | -0.06 kcal/mol
TTGCGCACGTGAGTGA | 0.01 kcal/mol

Sequence | relative binding free energy
CGTGGCACGTGAAATT | 0.24 kcal/mol
TGTTTCACGTGGTTAA | 0.31 kcal/mol
TATAGCACGTGTCATG | -0.09 kcal/mol
GAGGGCACGTGTTAGA | -0.11 kcal/mol
TGGGTCACGTGTGTAA | 0.21 kcal/mol
ATTATCACGTGTTATT | -0.01 kcal/mol
TAGGTCACGTGTATGA | 0.11 kcal/mol
GGGAGCACGTGTCTGT | -0.04 kcal/mol
CGGTTCACGTGTAATG | 0.21 kcal/mol
TGCTACACGTGAGGGA | 0.27 kcal/mol
GGAGGCACGTGGGGGG | -0.15 kcal/mol
GCTTGCACGTGGATGT | 0.01 kcal/mol
GTTTTCACGTGGAACG | 0.58 kcal/mol
GTAGGCACGTGCTAGT | -0.23 kcal/mol
ATATGCACGTGTCTTT | -0.03 kcal/mol
CGAGACACGTGAGGGG | 0.19 kcal/mol
GTGCGCACGTGAGTAG | 0.11 kcal/mol
CTGGACACGTGAGTGG | 0.3 kcal/mol
TGGAACACGTGAGGTC | 0.25 kcal/mol
ATCAACACGTGTTGGT | -0.04 kcal/mol
CGGGTCACGTGAGGTC | 0.23 kcal/mol
TGATTCACGTGAGTTC | 0.47 kcal/mol
ACTAGCACGTGAAGGG | 0.25 kcal/mol

Sequence | relative binding free energy
TGCTTCACGTGGTGGC | 0.21 kcal/mol
GTGGGCACGTGTTTCG | -0.05 kcal/mol
TTATACACGTGGAGTG | 0.03 kcal/mol
TGGGTCACGTGTAGAC | 0.22 kcal/mol
AGTAACACGTGGATGG | 0 kcal/mol
TAGGACACGTGGTTTC | 0.01 kcal/mol
TGTGTCACGTGAAGGA | 0.32 kcal/mol
GTGTGCACGTGAATGT | 0.3 kcal/mol
GAGGACACGTGGTCGT | 0.12 kcal/mol
GACGGCACGTGGTGTC | -0.01 kcal/mol
GGTGCCACGTGGGAAA | -0.06 kcal/mol
AGCGTCACGTGGGATA | -0.14 kcal/mol
TTGTTCACGTGTAACA | 0.28 kcal/mol
CGTGGCACGTGGCTTA | -0.17 kcal/mol
GTAGACACGTGAGTTT | 0.35 kcal/mol
TATGTCACGTGTGGAG | 0.13 kcal/mol
AGGGACACGTGAGTGC | 0.24 kcal/mol
GGAGTCACGTGGACGG | 0.14 kcal/mol
GGCGGCACGTGCTGGT | -0.12 kcal/mol
TATTACACGTGTGCTG | -0.1 kcal/mol
CAGAGCACGTGTTTGT | -0.15 kcal/mol
ATGGGCACGTGGGTCA | -0.16 kcal/mol
TTTTGCACGTGACAGT | 0.05 kcal/mol

Sequence | relative binding free energy
TATTACACGTGAGGTG | 0.29 kcal/mol
GGTGGCACGTGTTACA | -0.12 kcal/mol
ATTAGCACGTGCGATG | -0.03 kcal/mol
GGCTTCACGTGGGTTT | 0.32 kcal/mol
GTGTACACGTGAGTGA | 0.28 kcal/mol
AGGTACACGTGCGCTT | 0.13 kcal/mol
GTTTACACGTGGTGGG | 0.15 kcal/mol
ATGTTCACGTGTAGTT | 0.34 kcal/mol
TTTTCCACGTGTATAG | 0.23 kcal/mol
ATTGTCACGTGTCGCG | 0.05 kcal/mol
CAGTTCACGTGGAGGT | 0.15 kcal/mol
AATTGCACGTGGGGCG | -0.02 kcal/mol
TATGTCACGTGGTCAG | -0.03 kcal/mol
AATTGCACGTGAAGTA | 0.28 kcal/mol
GGCTACACGTGTTGCG | 0.25 kcal/mol
GTTTACACGTGTGGCG | 0.22 kcal/mol
CTTAGCACGTGTGGTG | 0.01 kcal/mol
TGCAGCACGTGGGCCG | -0.13 kcal/mol
CTAGGCACGTGGCGTA | -0.22 kcal/mol
TCTGGCACGTGAAGGC | 0.29 kcal/mol
GGGGGCACGTGTGGTC | 0.09 kcal/mol
TCTGGCACGTGTGAAG | -0.01 kcal/mol
GGTGACACGTGCTTGG | 0.01 kcal/mol

Sequence | relative binding free energy
GTCGGCACGTGTTAGT | 0.13 kcal/mol
AGTGGCACGTGAGGTC | 0.16 kcal/mol
GACGGCACGTGATTTT | 0.24 kcal/mol
GATGGCACGTGATTTG | 0.03 kcal/mol
CTTTGCACGTGGTGCT | -0.1 kcal/mol
TTAGACACGTGGTGCA | -0.07 kcal/mol
TAATACACGTGGGGTG | -0.16 kcal/mol
AGCATCACGTGGTGGG | 0.06 kcal/mol
TGCGGCACGTGTGTGC | -0.06 kcal/mol
GGGATCACGTGTGATT | 0.38 kcal/mol
GGGTGCACGTGAGTTA | 0.24 kcal/mol
GGTGTCACGTGTTCTC | 0.13 kcal/mol
TTATACACGTGTTAAA | -0.11 kcal/mol
GGATGCACGTGGTACG | -0.13 kcal/mol
TTTGGCACGTGATTTC | 0.11 kcal/mol
AGTTGCACGTGCAGGA | -0.05 kcal/mol
CTGGTCACGTGTGGTC | 0.25 kcal/mol
AATGGCACGTGAAGGG | 0.1 kcal/mol
TCTTTCACGTGGTATT | 0.23 kcal/mol
TAGTGCACGTGTTCTG | -0.07 kcal/mol
ACGGGCACGTGGAAGT | -0.11 kcal/mol
TAGTTCACGTGTGACT | 0.3 kcal/mol
TAGGCCACGTGGCGTG | -0.11 kcal/mol
